From FireProtDB (doi:10.1002/pro.5560041010)

Settings: Gallus gallus; pH 5; 25 °C; GdnHCl; CD; Sodium acetate 0.1 M; reversible: yes

**Q.** With “Lysozyme C wild type (chain not printed)” as the substance, how does the denaturant m value read?
**A.** 2.4 kcal/mol/M

**Q.** What about the “denaturant midpoint (higher = more stable)” value of the same substance?
**A.** 4.12 M

**Q.** What about the unfolding free energy of the same substance?
**A.** 10.2 kcal/mol
